Laboratory results taken from the supplement of paper PMC12217912.
Some of the results follow. The full chains were built here from the parent and the listed change. Values near 0.05 are background.

B1: TEV protease; numbered along this chain (parent)
chain: MGESLFKGPRDYNPISSSICHLTNESDGHTTSLYGIGFGPFIITNKHLFRRNNGTLVVQSLHGVFKVKDTTTLQQHLVDGRDMIIIRMPKDFPPFPQKLKFREPQREERICLVTTNFQTKSMSSMVSDTSCTFPSGDGIFWKHWIQTKDGQCGSPLVSTRDGFIVGIHSASNFTNTNNYFTSVPKNFMELLTNQEAQQWVSGWRLNADSVLWGGHKVFMVKPEEPFQPVKEATQL

Variants of: B1
Test: raw area under fraction-flipped curve 0-4 h after induction (AUC4h, not background-subtracted), DNA-recorder readout of cleavage of the substrate (dimensionless); higher = more cleavage of the substrate by the protease variant
Conditions: temperature: 34 °C; time window: 0-4 h after rhamnose induction
Procedure: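 In vivo DNA recorder in E. coli TOP10(DE3) ΔrhaA at 34 °C. Each TEVp single-site mutant (parent TEVp 0) is paired with a single-site variant of the 7-mer TEVs (canonical ENLYFQ|S). The substrate sits between flexible linkers in a Bxb1-sfGFP-TEVs-SsrA fusion, so cleavage stabilises Bxb1 and speeds flipping of a recombination array, read by NGS. The value is the raw area under the fraction-flipped curve over 0-4 h after rhamnose induction (AUC4h), with ≥20 reads per time point. It is not background-subtracted; inactive controls average about 0.047.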
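Further: Bxb1 expression induced with 0.2% (w/v) L-rhamnose at OD600 near 0.5, cultures sampled hourly, flipped fraction per protease–substrate barcode pair counted by paired-end Illumina sequencing.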

| Variant | area with substrate ENLAFQS | area with substrate ENLCFQS | area with substrate ENLDFQS | area with substrate ENLEFQS | area with substrate ENLFFQS | area with substrate ENLGFQS | area with substrate ENLHFQS | area with substrate ENLKFQS | area with substrate ENLLFQS | area with substrate ENLPFQS |
| --- | --- | --- | --- | --- | --- | --- | --- | --- | --- | --- |
| MGESLFKGPRDYNPISSSICHLTNESDGHTTSLYGIGFGPFIITNKHLFRRNNGTLVVQSLHGVFKVKDTTTLQQHLVDGRDMIIIRMPKDFPPFPQKLKFREPQREERICLVTTNFQTKSMSSMVSDTSCTFPSGHGIFWKHWIQTKDGQCGSPLVSTRDGFIVGIHSASNFTNTNNYFTSVPKNFMELLTNQEAQQWVSGWRLNADSVLWGGHKVFMVKPEEPFQPVKEATQL [D137H] | 0.0777 | 0.059 | 0.064 | 0.0621 | 0.0977 | 0.0751 | 0.0906 | 0.0379 | 0.0703 | 0.0632 |
| MGESLFKGPRDYNPISSSICHLTNESDGHTTSLYGIGFGPFIITNKHLFRRNNGTLVVQSLHGVFKVKDTTTLQQHLVDGRDMIIIRMPKDFPPFPQKLKFREPQREERICLVTTNFQTKSMSSMVSDTSCTFPSGDGIFWKHWIQTKDGQCGSPLVSTRDGFIVGIHSASNFTNTNNYFTSVPKNFMEFLTNQEAQQWVSGWRLNADSVLWGGHKVFMVKPEEPFQPVKEATQL [L190F] | 0.0761 | – | – | – | – | – | – | 0.0792 | – | – |
| MGESLFKGPRDYNPISSSICHLTNESDGHTTSLYGIGFGPFIITNKHLFRRNNGTLVVQSLHGVFKVKDTTTLQQHLVDGRDMIIIRMPKDFPPFPQKLKFREPQREERICLVTTNFQTKSMSSMVSDTSCTFRSGDGIFWKHWIQTKDGQCGSPLVSTRDGFIVGIHSASNFTNTNNYFTSVPKNFMELLTNQEAQQWVSGWRLNADSVLWGGHKVFMVKPEEPFQPVKEATQL [P134R] | 0.0553 | 0.0652 | 0.0666 | 0.0541 | 0.0694 | – | 0.0676 | 0.0662 | 0.069 | 0.0701 |
| MGESLFKGPRDYNPISSSICHLTNESDGHTTSLYGIGFGPFIITNKHLFRRNNGTLEVQSLHGVFKVKDTTTLQQHLVDGRDMIIIRMPKDFPPFPQKLKFREPQREERICLVTTNFQTKSMSSMVSDTSCTFPSGDGIFWKHWIQTKDGQCGSPLVSTRDGFIVGIHSASNFTNTNNYFTSVPKNFMELLTNQEAQQWVSGWRLNADSVLWGGHKVFMVKPEEPFQPVKEATQL [V57E] | 0.0462 | – | 0.0624 | – | 0.0816 | 0.0921 | 0.0681 | 0.0743 | – | 0.0657 |
| MGESLFKGPRDYNPISSSICHLTNESDGHTTSLYGIGFGPFIITNKHLFRRNNGTLVVQSLHGVFKVKDTTTLQQHLVDGADMIIIRMPKDFPPFPQKLKFREPQREERICLVTTNFQTKSMSSMVSDTSCTFPSGDGIFWKHWIQTKDGQCGSPLVSTRDGFIVGIHSASNFTNTNNYFTSVPKNFMELLTNQEAQQWVSGWRLNADSVLWGGHKVFMVKPEEPFQPVKEATQL [R81A] | 0.0698 | – | – | – | 0.0676 | – | 0.0986 | – | 0.065 | 0.0489 |
| MGESLFKGPRDYNPISSSICHLTNESDGHTTSLYGIGFGPFIITNKHLFRRNNGTLVVQSLHGVFKVKDTTTLQQHLVDGRDMIIIRMPKDFPPFPQKLKFREPQREERICLVTTNFQTKSMSSMVSDTSCTFPSGDGIFWKHWIQTKDGQCGSPLVSTRDGFIVGIHSASNFTNTNNYFTSVPKNFMELLTNQEAQQWVEGWRLNADSVLWGGHKVFMVKPEEPFQPVKEATQL [S201E] | 0.0703 | 0.0599 | 0.0557 | – | 0.0877 | – | 0.0538 | 0.0702 | – | – |
| MGESLFKGPRDYNPISSSICHLTNESDGHTTSLYGIGFGPFIITNKHLFRRNNGTLVVQSLHGVFKVKDTTTLQQHLVDGRDMIIIRMPKDFPPFPQKLKFREPQREERICLVTTNFQTKSMSSMVSDTSCTFPSGDGIFWKHWIQTKDGQCGSPLVSTRDGFIVGIHSASNFTNTNNYFTSVPKNFMELLTNQSAQQWVSGWRLNADSVLWGGHKVFMVKPEEPFQPVKEATQL [E195S] | 0.0448 | – | 0.0615 | 0.0285 | – | – | – | 0.0628 | 0.102 | 0.0737 |
| MGESLFKGPRDYNPISSSICHLTNESDGHTTSLYGIGFGPFIITNKHLFRRNNGTLVVQSLHGVFKVKDTTTLQQHLVDGRDMIIIRMPKDFPPFPQKLKFREPQREERICLVTTNFQTKSMSSMVSDTSCTFPSGDGIFWNHWIQTKDGQCGSPLVSTRDGFIVGIHSASNFTNTNNYFTSVPKNFMELLTNQEAQQWVSGWRLNADSVLWGGHKVFMVKPEEPFQPVKEATQL [K142N] | 0.0604 | – | 0.0594 | – | – | – | 0.0651 | 0.0726 | 0.0744 | – |
| MGESLFKGPRDYNPISSSICHLTNESDGHTTSLYSIGFGPFIITNKHLFRRNNGTLVVQSLHGVFKVKDTTTLQQHLVDGRDMIIIRMPKDFPPFPQKLKFREPQREERICLVTTNFQTKSMSSMVSDTSCTFPSGDGIFWKHWIQTKDGQCGSPLVSTRDGFIVGIHSASNFTNTNNYFTSVPKNFMELLTNQEAQQWVSGWRLNADSVLWGGHKVFMVKPEEPFQPVKEATQL [G35S] | 0.0588 | – | 0.054 | – | – | – | – | – | 0.0523 | – |

Same assay, conditions: temperature: 34 °C; time window: 0-4 h after rhamnose induction

| Variant | area with substrate ENLSFQS | area with substrate ENLTFQS | area with substrate ENLVFQS | area with substrate ENLWFQS | area with substrate ENLIFQS | area with substrate ENLMFQS | area with substrate ENLNFQS | area with substrate ENLQFQS | area with substrate ENLRFQS |
| --- | --- | --- | --- | --- | --- | --- | --- | --- | --- |
| MGESLFKGPRDYNPISSSICHLTNESDGHTTSLYGIGFGPFIITNKHLFRRNNGTLVVQSLHGVFKVKDTTTLQQHLVDGRDMIIIRMPKDFPPFPQKLKFREPQREERICLVTTNFQTKSMSSMVSDTSCTFPSGHGIFWKHWIQTKDGQCGSPLVSTRDGFIVGIHSASNFTNTNNYFTSVPKNFMELLTNQEAQQWVSGWRLNADSVLWGGHKVFMVKPEEPFQPVKEATQL [D137H] | 0.0657 | 0.0985 | 0.0897 | – | – | – | – | – | – |
| MGESLFKGPRDYNPISSSICHLTNESDGHTTSLYGIGFGPFIITNKHLFRRNNGTLVVQSLHGVFKVKDTTTLQQHLVDGRDMIIIRMPKDFPPFPQKLKFREPQREERICLVTTNFQTKSMSSMVSDTSCTFPSGDGIFWKHWIQTKDGQCGSPLVSTRDGFIVGIHSASNFTNTNNYFTSVPKNFMEFLTNQEAQQWVSGWRLNADSVLWGGHKVFMVKPEEPFQPVKEATQL [L190F] | 0.0728 | – | – | 0.063 | – | – | – | – | – |
| MGESLFKGPRDYNPISSSICHLTNESDGHTTSLYGIGFGPFIITNKHLFRRNNGTLVVQSLHGVFKVKDTTTLQQHLVDGRDMIIIRMPKDFPPFPQKLKFREPQREERICLVTTNFQTKSMSSMVSDTSCTFRSGDGIFWKHWIQTKDGQCGSPLVSTRDGFIVGIHSASNFTNTNNYFTSVPKNFMELLTNQEAQQWVSGWRLNADSVLWGGHKVFMVKPEEPFQPVKEATQL [P134R] | 0.0512 | – | 0.0666 | 0.0814 | 0.0915 | 0.0804 | 0.0595 | – | – |
| MGESLFKGPRDYNPISSSICHLTNESDGHTTSLYGIGFGPFIITNKHLFRRNNGTLEVQSLHGVFKVKDTTTLQQHLVDGRDMIIIRMPKDFPPFPQKLKFREPQREERICLVTTNFQTKSMSSMVSDTSCTFPSGDGIFWKHWIQTKDGQCGSPLVSTRDGFIVGIHSASNFTNTNNYFTSVPKNFMELLTNQEAQQWVSGWRLNADSVLWGGHKVFMVKPEEPFQPVKEATQL [V57E] | 0.055 | – | – | 0.0786 | – | – | 0.0391 | 0.063 | 0.0929 |
| MGESLFKGPRDYNPISSSICHLTNESDGHTTSLYGIGFGPFIITNKHLFRRNNGTLVVQSLHGVFKVKDTTTLQQHLVDGADMIIIRMPKDFPPFPQKLKFREPQREERICLVTTNFQTKSMSSMVSDTSCTFPSGDGIFWKHWIQTKDGQCGSPLVSTRDGFIVGIHSASNFTNTNNYFTSVPKNFMELLTNQEAQQWVSGWRLNADSVLWGGHKVFMVKPEEPFQPVKEATQL [R81A] | 0.0594 | – | – | 0.0591 | 0.0621 | – | 0.0536 | – | – |
| MGESLFKGPRDYNPISSSICHLTNESDGHTTSLYGIGFGPFIITNKHLFRRNNGTLVVQSLHGVFKVKDTTTLQQHLVDGRDMIIIRMPKDFPPFPQKLKFREPQREERICLVTTNFQTKSMSSMVSDTSCTFPSGDGIFWKHWIQTKDGQCGSPLVSTRDGFIVGIHSASNFTNTNNYFTSVPKNFMELLTNQEAQQWVEGWRLNADSVLWGGHKVFMVKPEEPFQPVKEATQL [S201E] | 0.0655 | 0.0723 | 0.0765 | 0.0594 | – | 0.0619 | 0.0463 | – | 0.0683 |
| MGESLFKGPRDYNPISSSICHLTNESDGHTTSLYGIGFGPFIITNKHLFRRNNGTLVVQSLHGVFKVKDTTTLQQHLVDGRDMIIIRMPKDFPPFPQKLKFREPQREERICLVTTNFQTKSMSSMVSDTSCTFPSGDGIFWKHWIQTKDGQCGSPLVSTRDGFIVGIHSASNFTNTNNYFTSVPKNFMELLTNQSAQQWVSGWRLNADSVLWGGHKVFMVKPEEPFQPVKEATQL [E195S] | – | – | 0.0877 | – | – | 0.0791 | – | – | 0.0727 |
| MGESLFKGPRDYNPISSSICHLTNESDGHTTSLYGIGFGPFIITNKHLFRRNNGTLVVQSLHGVFKVKDTTTLQQHLVDGRDMIIIRMPKDFPPFPQKLKFREPQREERICLVTTNFQTKSMSSMVSDTSCTFPSGDGIFWNHWIQTKDGQCGSPLVSTRDGFIVGIHSASNFTNTNNYFTSVPKNFMELLTNQEAQQWVSGWRLNADSVLWGGHKVFMVKPEEPFQPVKEATQL [K142N] | – | – | 0.0782 | 0.076 | – | – | 0.0658 | 0.0606 | – |
